Variants at the floor of the assay are shown more often than the library holds them.
B1: TPR 5TU (parent)
chain: GGAUCUUCUCGAUCUAACAAAAAAGACAAAUCUGCCACAAAGCUUGAGAGCAUCUUCGGAUGCAGAGGCGGCAGCCUUCGGUGGCGCGAUAGCGCCAACGUUCUCAACUAUGACACGCAAAACGCGUGCUCCGUUGAAUGGAGUUUAUCAUG

Variants of: B1
Experiment: polymerase ribozyme fitness, log enrichment relative to wild type (log ratio); higher = more active; in vitro selection for triplet polymerase activity
Procedure, shortened: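 Mutant libraries of each subunit of a heterodimeric triplet polymerase ribozyme were built by PCR and transcribed. Each library went through one round of in vitro selection in triplicate: annealing with biotinylated primer, partner subunit and triplets, frozen incubation at −7 °C, gel excision of extended constructs, streptavidin-bead capture and RT-PCR. Input and output libraries were Illumina-sequenced; only genotypes with ≥10 input reads and ≥1 read per output were kept. Fitness is log2(genotype enrichment/wild-type enrichment), using inverse-variance-weighted replicate averages.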

Variant	polymerase ribozyme fitness (log ratio)
A24G C57G C75U G92U C118A	≤ -4.2
A24C A30G G71A C85U C123U U135G	≤ -4.2
A24C C75A A106U C132G U139C A142U	≤ -4.2
A23U U44G G94C	≤ -4.2
A24C C27G U44G C54U A91G C95U G112A A115U C118A G128C	≤ -4.2
A24G A64C G67A G84U U109G A150U	≤ -4.2
A24C A37C C38U U56A C57U C63A C69U C96A U127G U144C	≤ -4.2
A24G C57G G59U A73U C96U C105G C108G	≤ -4.2
A24G A26G A60C C85U G88U C93G C105A U145A U151C	≤ -4.2
A24C C131G C132A U139C	≤ -4.2
A24C U56G G59C A91U U144C G152U	≤ -4.2
A24C A26U U31A G68U C87A A89G A98G C132G	≤ -4.2
A24C G84U	≤ -4.2
A23U U55G C87U U145G	≤ -4.2
A24C G71A A107C G126A	≤ -4.2
A24C C99U	≤ -4.2
A24C A52G U78A G92A C129G G141A	≤ -4.2
A23U U78A C93A	≤ -4.2
A24C A40C C87A C99A C116A G140U	≤ -4.2
A24G C85U C114U G124A U139G U148C	≤ -4.2
A24G C99U	-3.56

Variant	polymerase ribozyme fitness (log ratio)
A24C A28C A41G G42A C93A	≤ -4.2
A24C A30U A138U U144G	≤ -4.2
A24G A28U C38A A52G U56A A64U	≤ -4.2
A24C G42U A47C C79A U90A A97C U148A	≤ -4.2
A24C C57U C75U C96A G143C	≤ -4.2
A24C A47G C79U G94C C125U	≤ -4.2
A24C U31G A37G C51U A52U U56G C76U C93A G141A	≤ -4.2
A23U U31G U45A U78A G83C C95A	≤ -4.2
A24C A47G A49U G83U C129U	≤ -4.2
A24C G62C G86U U102C	≤ -4.2
A23U G88U A106U A138U	≤ -4.2
A24G C36U G58C G68C U146C A147C	≤ -4.2
A24C U55A U56A C79A U148A	≤ -4.2
A24G C87G C114A G140U G141U	≤ -4.2
A24C C51U G86A	≤ -4.2
A24G A39G G67C C93G C116G U139C U151C	≤ -4.2
A24G A29U C76G C93G C96G G126A G143U	≤ -4.2
A24C C38G A49U G59C U61A G128U	≤ -4.2
A24G A41G U55A C63U C69A U82A G84A	≤ -4.2
A24C G83U C105A	≤ -4.2
A24G C38A G58A G92C A120C U148G	≤ -4.2

Variant	polymerase ribozyme fitness (log ratio)
A24G G25C A39C G58C	≤ -4.2
A24G C108U U148G	≤ -4.2
A24C A41C U55G	≤ -4.2
A24G A28U U78G G92U G152U	≤ -4.2
A24C U33A G62C U82G C123U A138G	≤ -4.2
A23U U31A U53A G84U G86U C87G C114U G140A	≤ -4.2
A24C U33A C35G U53A G92C	≤ -4.2
A24C A47C A49C A64C C95A U102G C131A A150C	≤ -4.2
A24G C105A U144G	≤ -4.2
A24G C43U C93U G141C	≤ -4.2
A24C G48A G67A G70A G88C C103G G133U	≤ -4.2
A24C C54A A60G A73U U77G	≤ -4.2
A24G G25U C32G G46C U101C	≤ -4.2
A24G A26U G141C	≤ -4.2
A24G A28U A52C C79G G83A C114A	≤ -4.2
A24G C27A C35U A40U C93U G128C G141A	≤ -4.2
A24C G50A A52C G74U C85U G117U	≤ -4.2
A24C G46A C116G	-4.14
A24G A97G	≤ -4.2
A24C C54U G84A C132G	≤ -4.2
A24G A37C A40C G50C U56A C79U U135G	≤ -4.2

Variant	polymerase ribozyme fitness (log ratio)
A24C C27A C87G C108G C114U U148C	≤ -4.2
A24G A41C C75A C116A	≤ -4.2
A23U U53A	≤ -4.2
A23U U53G	≤ -4.2
A24C C32U A40U U44A U77A G94C A115C G124U G136C U151C	≤ -4.2
A24G A29G U31G U55G U56A G92A C103U U111A	≤ -4.2
A24C C35U C95A	≤ -4.2
A24G A26U U56A C87G C123A C132G G133U	≤ -4.2
A24C A28U A41C U78G A122G U127A	≤ -4.2
A23U G94A C105A G133U	≤ -4.2
A24C C27G A29U C57U G86C C103A	≤ -4.2
A24G A28C U82A	≤ -4.2
A24C G48U	≤ -4.2
A24C G48A	≤ -4.2
A24C A28U C36A G50U G143A	≤ -4.2
A24C A91G	≤ -4.2
A24C C87A A113G C118G G133C A137G G152A	≤ -4.2
A24C C54A	≤ -4.2
A24G C54U C95U A97C A119U C125U	≤ -4.2
A24G A26U G58C G84U A113U	≤ -4.2

— the RNAGym collection of RNA variant scans (doi:10.1073/pnas.2313332121)
